From the supplement of paper PMC8728848
The other results are listed elsewhere or left out.

Columns and labels:
Experiment in all cases: glycan array binding signal (z-score within array); higher = stronger binding
Conditions in all cases: glycan notation: IUPAC condensed, linker removed
Neu5Ac(a2-3)Gal = molecular target: Neu5Ac(a2-3)Gal
Outline: (§1)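 Glycan array data came from 3228 arrays in the Consortium for Functional Glycomics database, and only arrays with an available protein sequence were kept. Glycan names were put into IUPAC-condensed notation, and columns mapping to the same glycan were averaged. The binding signal is a within-array Z-score, averaged across arrays of one protein sequence run at different concentrations or buffers and across linkers. A negative Z-score can be read as non-binding.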

[1] = molecular target: Neu5Ac(a2-3)Gal(b1-3)GalNAc
Outline: as §1

[2] = molecular target: Neu5Ac(a2-3)Gal(b1-3)GalNAc(b1-3)Gal(a1-4)Gal(b1-4)Glc
Outline: as §1

[3] = molecular target: Neu5Ac(a2-3)Gal(b1-3)GalNAc(b1-4)Gal(b1-4)Glc
Outline: as §1

[4] = molecular target: Neu5Ac(a2-3)Gal(b1-3)GalNAc(b1-4)[Neu5Ac(a2-3)]Gal(b1-4)Glc
Outline: as §1

[5] = molecular target: Neu5Ac(a2-3)Gal(b1-3)GalNAc(b1-4)[Neu5Ac(a2-8)Neu5Ac(a2-3)]Gal(b1-4)Glc
Outline: as §1

[6] = molecular target: Neu5Ac(a2-3)Gal(b1-3)GalNAc6S
Outline: as §1

[7] = molecular target: Neu5Ac(a2-3)Gal(b1-3)GlcNAc
Outline: as §1

[8] = molecular target: Neu5Ac(a2-3)Gal(b1-3)GlcNAc(b1-2)Man
Outline: as §1

[9] = molecular target: Neu5Ac(a2-3)Gal(b1-3)GlcNAc(b1-2)Man(a1-3)[GlcNAc(b1-4)][Neu5Ac(a2-3)Gal(b1-3)GlcNAc(b1-2)Man(a1-6)]Man(b1-4)GlcNAc(b1-4)GlcNAc
Outline: as §1

[10] = molecular target: Neu5Ac(a2-3)Gal(b1-3)GlcNAc(b1-2)Man(a1-3)[Neu5Ac(a2-3)Gal(b1-3)GlcNAc(b1-2)Man(a1-6)]Man(b1-4)GlcNAc(b1-4)GlcNAc
Outline: as §1

[11] = molecular target: Neu5Ac(a2-3)Gal(b1-3)GlcNAc(b1-2)[Neu5Ac(a2-3)Gal(b1-3)GlcNAc(b1-4)]Man(a1-6)[Neu5Ac(a2-3)Gal(b1-3)GlcNAc(b1-2)Man(a1-3)]Man(b1-4)GlcNAc(b1-4)GlcNAc
Outline: as §1

[12] = molecular target: Neu5Ac(a2-3)Gal(b1-3)GlcNAc(b1-3)Gal(b1-3)GlcNAc
Outline: as §1

[13] = molecular target: Neu5Ac(a2-3)Gal(b1-3)GlcNAc(b1-3)Gal(b1-4)GlcNAc
Outline: as §1

[14] = molecular target: Neu5Ac(a2-3)Gal(b1-3)GlcNAc(b1-3)GalNAc
Outline: as §1

[15] = molecular target: Neu5Ac(a2-3)Gal(b1-3)GlcNAc(b1-6)GalNAc
Outline: as §1

[16] = molecular target: Neu5Ac(a2-3)Gal(b1-3)GlcNAc6S
Outline: as §1

[17] = molecular target: Neu5Ac(a2-3)Gal(b1-3)[Fuc(a1-4)]GlcNAc
Outline: as §1

[18] = molecular target: Neu5Ac(a2-3)Gal(b1-3)[Fuc(a1-4)]GlcNAc(b1-3)Gal(b1-3)[Fuc(a1-4)]GlcNAc
Outline: as §1

[19] = molecular target: Neu5Ac(a2-3)Gal(b1-3)[Fuc(a1-4)]GlcNAc(b1-3)Gal(b1-4)[Fuc(a1-3)]GlcNAc
Outline: as §1

[20] = molecular target: Neu5Ac(a2-3)Gal(b1-3)[GlcNAc(b1-6)]GalNAc
Outline: as §1

[21] = molecular target: Neu5Ac(a2-3)Gal(b1-3)[Neu5Ac(a2-6)]GalNAc
Outline: as §1

[22] = molecular target: Neu5Ac(a2-3)Gal(b1-3)[Neu5Ac(a2-6)]GlcNAc(b1-3)[Fuc(a1-3)[Gal(b1-4)]GlcNAc(b1-6)]Gal(b1-4)Glc
Outline: as §1

[23] = molecular target: Neu5Ac(a2-3)Gal(b1-3)]Neu5Ac(a2-3)Gal(b1-4)]GlcNAc
Outline: as §1

Neu5Ac(a2-3)Gal(b1-4)Glc = molecular target: Neu5Ac(a2-3)Gal(b1-4)Glc
Outline: as §1

[24] = molecular target: Neu5Ac(a2-3)Gal(b1-4)GlcNAc
Outline: as §1

[25] = molecular target: Neu5Ac(a2-3)Gal(b1-4)GlcNAc(b1-2)Man
Outline: as §1

[26] = molecular target: Neu5Ac(a2-3)Gal(b1-4)GlcNAc(b1-2)Man(a1-3)[GlcNAc(b1-4)][Neu5Ac(a2-3)Gal(b1-4)GlcNAc(b1-2)Man(a1-6)]Man(b1-4)GlcNAc(b1-4)GlcNAc
Outline: as §1

[27] = molecular target: Neu5Ac(a2-3)Gal(b1-4)GlcNAc(b1-2)Man(a1-3)[Neu5Ac(a2-3)Gal(b1-4)GlcNAc(b1-2)Man(a1-6)]Man(b1-4)GlcNAc(b1-4)GlcNAc
Outline: as §1

[28] = molecular target: Neu5Ac(a2-3)Gal(b1-4)GlcNAc(b1-2)Man(a1-3)[Neu5Ac(a2-3)Gal(b1-4)GlcNAc(b1-2)Man(a1-6)]Man(b1-4)GlcNAc(b1-4)[Fuc(a1-6)]GlcNAc
Outline: as §1

[29] = molecular target: Neu5Ac(a2-3)Gal(b1-4)GlcNAc(b1-2)Man(a1-3)[Neu5Ac(a2-6)Gal(b1-4)GlcNAc(b1-2)Man(a1-6)]Man(b1-4)GlcNAc(b1-4)GlcNAc
Outline: as §1

[30] = molecular target: Neu5Ac(a2-3)Gal(b1-4)GlcNAc(b1-2)[Neu5Ac(a2-3)Gal(b1-4)GlcNAc(b1-4)]Man(a1-3)[GlcNAc(b1-4)][Neu5Ac(a2-3)Gal(b1-4)GlcNAc(b1-2)[Neu5Ac(a2-3)Gal(b1-4)GlcNAc(b1-6)]Man(a1-6)]Man(b1-4)GlcNAc(b1-4)GlcNAc
Outline: as §1

[31] = molecular target: Neu5Ac(a2-3)Gal(b1-4)GlcNAc(b1-2)[Neu5Ac(a2-3)Gal(b1-4)GlcNAc(b1-4)]Man(a1-3)[GlcNAc(b1-4)][Neu5Ac(a2-3)Gal(b1-4)GlcNAc(b1-4)Man(a1-6)]Man(b1-4)GlcNAc(b1-4)GlcNAc
Outline: as §1

[32] = molecular target: Neu5Ac(a2-3)Gal(b1-4)GlcNAc(b1-2)[Neu5Ac(a2-3)Gal(b1-4)GlcNAc(b1-6)]Man(a1-6)[Neu5Ac(a2-3)Gal(b1-4)GlcNAc(b1-2)Man(a1-3)][GlcNAc(b1-4)]Man(b1-4)GlcNAc(b1-4)GlcNAc
Outline: as §1

[33] = molecular target: Neu5Ac(a2-3)Gal(b1-4)GlcNAc(b1-3)Gal
Outline: as §1

[34] = molecular target: Neu5Ac(a2-3)Gal(b1-4)GlcNAc(b1-3)Gal(b1-3)GlcNAc
Outline: as §1

[35] = molecular target: Neu5Ac(a2-3)Gal(b1-4)GlcNAc(b1-3)Gal(b1-4)GlcNAc
Outline: as §1

[36] = molecular target: Neu5Ac(a2-3)Gal(b1-4)GlcNAc(b1-3)Gal(b1-4)GlcNAc(b1-2)Man(a1-3)[Neu5Ac(a2-3)Gal(b1-4)GlcNAc(b1-3)Gal(b1-4)GlcNAc(b1-2)Man(a1-6)]Man(b1-4)GlcNAc(b1-4)GlcNAc
Outline: as §1

[37] = molecular target: Neu5Ac(a2-3)Gal(b1-4)GlcNAc(b1-3)Gal(b1-4)GlcNAc(b1-3)Gal(b1-4)GlcNAc
Outline: as §1

[38] = molecular target: Neu5Ac(a2-3)Gal(b1-4)GlcNAc(b1-3)Gal(b1-4)GlcNAc(b1-3)Gal(b1-4)GlcNAc(b1-2)Man(a1-3)[Neu5Ac(a2-3)Gal(b1-4)GlcNAc(b1-3)Gal(b1-4)GlcNAc(b1-3)Gal(b1-4)GlcNAc(b1-2)Man(a1-6)]GalNAc
Outline: as §1

[39] = molecular target: Neu5Ac(a2-3)Gal(b1-4)GlcNAc(b1-3)Gal(b1-4)GlcNAc(b1-3)GalNAc
Outline: as §1

[40] = molecular target: Neu5Ac(a2-3)Gal(b1-4)GlcNAc(b1-3)Gal(b1-4)GlcNAc(b1-3)[Neu5Ac(a2-3)Gal(b1-4)GlcNAc(b1-3)Gal(b1-4)GlcNAc(b1-6)]GalNAc
Outline: as §1

[41] = molecular target: Neu5Ac(a2-3)Gal(b1-4)GlcNAc(b1-3)Gal(b1-4)GlcNAc(b1-6)[Gal(b1-3)]GalNAc
Outline: as §1

[42] = molecular target: Neu5Ac(a2-3)Gal(b1-4)GlcNAc(b1-3)Gal(b1-4)[Fuc(a1-3)]GlcNAc
Outline: as §1

[43] = molecular target: Neu5Ac(a2-3)Gal(b1-4)GlcNAc(b1-3)GalNAc
Outline: as §1

B1: LICBM33A (Lactococcus lactis), Q9CE94 (protein)
chain: MKKLLTGLLVAAGLLSVSLLIKTDTVSAHGYVQSPPARGYQGQLDSQSLGWTAAFNIYGNVISNPQSLEAPKGFPECGPADGRIASANGGLGQIGDFVLDNQTSSRWKKTSISTGSNIFTWKYTAPHKTTKWHYYMTKTGWDQNAPLKHSELELIGTINHDGSPATNNLSHTINIPTDRSGYHIVLAVWDVADTSNAFYNVIDINVNNKNASSQVFGPFL
- glycan array binding signal (z-score) (Neu5Ac(a2-3)Gal): 0.406
- glycan array binding signal (z-score) [1]: -0.472
- glycan array binding signal (z-score) [2]: -0.631
- glycan array binding signal (z-score) [3]: -0.127
- glycan array binding signal (z-score) [4]: -0.337
- glycan array binding signal (z-score) [5]: -0.551
- glycan array binding signal (z-score) [6]: -0.141
- glycan array binding signal (z-score) [7]: -0.238
- glycan array binding signal (z-score) [8]: 0.615
- glycan array binding signal (z-score) [9]: -0.346
- glycan array binding signal (z-score) [10]: -0.228
- glycan array binding signal (z-score) [11]: -0.513
- glycan array binding signal (z-score) [12]: -0.383
- glycan array binding signal (z-score) [13]: -0.697
- glycan array binding signal (z-score) [14]: -0.354
- glycan array binding signal (z-score) [15]: -0.249
- glycan array binding signal (z-score) [16]: 0.098
- glycan array binding signal (z-score) [17]: 3.52
- glycan array binding signal (z-score) [18]: 3.37
- glycan array binding signal (z-score) [19]: -0.189
- glycan array binding signal (z-score) [20]: 1.55
- glycan array binding signal (z-score) [21]: 0.795
- glycan array binding signal (z-score) [22]: -0.407
- glycan array binding signal (z-score) [23]: 1.84
- glycan array binding signal (z-score) (Neu5Ac(a2-3)Gal(b1-4)Glc): 0.894
- glycan array binding signal (z-score) [24]: 0.435
- glycan array binding signal (z-score) [25]: -0.066
- glycan array binding signal (z-score) [26]: -0.421
- glycan array binding signal (z-score) [27]: 3.04
- glycan array binding signal (z-score) [28]: -0.464
- glycan array binding signal (z-score) [29]: -0.289
- glycan array binding signal (z-score) [30]: 0.049
- glycan array binding signal (z-score) [31]: -0.051
- glycan array binding signal (z-score) [32]: -0.147
- glycan array binding signal (z-score) [33]: -0.388
- glycan array binding signal (z-score) [34]: -0.245
- glycan array binding signal (z-score) [35]: -0.27
- glycan array binding signal (z-score) [36]: -0.451
- glycan array binding signal (z-score) [37]: 0.605
- glycan array binding signal (z-score) [38]: -0.006
- glycan array binding signal (z-score) [39]: 1.48
- glycan array binding signal (z-score) [40]: 1.85
- glycan array binding signal (z-score) [41]: 0.336
- glycan array binding signal (z-score) [42]: 1.85
- glycan array binding signal (z-score) [43]: -0.16
